# Source: PubChem BioAssay (Tox21)
# Several values for one entry are separate records, joined by “and”; a condition that tells them apart may be missing. Equal values may be shown once. Inconclusive means that the source gave no clear call. Such entries were picked first, then a sample of the others. Where the call is inconclusive, the potency comes from a doubtful curve fit. Activity calls are given as the source filed them. Unless noted, calls follow the shape of the dose curve; as a rule, active = well fitted cell-killing curve with a large enough effect in the repeat runs; inconclusive = weak or mixed curves, or effect the other way; inactive = no such curve, though single readings can be large or run the other way.
# Columns and labels:
# [1] = qHTS assay to identify small molecule antagonists of the progesterone receptor (PR) signaling pathway - cell viability counter screen (AID 1346798); also: nearly all actives have a fitted effect of over 50% in size
# How it was run: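 Counter screen for cytotoxicity: viability of PR-UAS-bla HEK293T cells was measured with CellTiter-Glo luminescence following 16 hr compound exposure in the presence of R5020.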
# [2] = target: Progesterone receptor (Homo sapiens) (UniProt P06401); experiment: qHTS assay to identify small molecule antagonists of the progesterone receptor (PR) signaling pathway (AID 1346795; active = well fitted inhibition curve with a large enough effect in the signal ratio in the repeat runs, not every such curve was filed as active; inconclusive = weak or mixed curves; the % refers to the signal ratio; as to activity change, negative = inhibition: % is scaled to controls: 0 for no effect and ±100 for the full control effect); details: PR-UAS-bla HEK293T, beta-lactamase FRET ratio, 16 h; activity change, negative = inhibition: at 92.4 µM (top of the series) unless noted
# Chain of UniProt P06401 (P06401 whole entry, looked up): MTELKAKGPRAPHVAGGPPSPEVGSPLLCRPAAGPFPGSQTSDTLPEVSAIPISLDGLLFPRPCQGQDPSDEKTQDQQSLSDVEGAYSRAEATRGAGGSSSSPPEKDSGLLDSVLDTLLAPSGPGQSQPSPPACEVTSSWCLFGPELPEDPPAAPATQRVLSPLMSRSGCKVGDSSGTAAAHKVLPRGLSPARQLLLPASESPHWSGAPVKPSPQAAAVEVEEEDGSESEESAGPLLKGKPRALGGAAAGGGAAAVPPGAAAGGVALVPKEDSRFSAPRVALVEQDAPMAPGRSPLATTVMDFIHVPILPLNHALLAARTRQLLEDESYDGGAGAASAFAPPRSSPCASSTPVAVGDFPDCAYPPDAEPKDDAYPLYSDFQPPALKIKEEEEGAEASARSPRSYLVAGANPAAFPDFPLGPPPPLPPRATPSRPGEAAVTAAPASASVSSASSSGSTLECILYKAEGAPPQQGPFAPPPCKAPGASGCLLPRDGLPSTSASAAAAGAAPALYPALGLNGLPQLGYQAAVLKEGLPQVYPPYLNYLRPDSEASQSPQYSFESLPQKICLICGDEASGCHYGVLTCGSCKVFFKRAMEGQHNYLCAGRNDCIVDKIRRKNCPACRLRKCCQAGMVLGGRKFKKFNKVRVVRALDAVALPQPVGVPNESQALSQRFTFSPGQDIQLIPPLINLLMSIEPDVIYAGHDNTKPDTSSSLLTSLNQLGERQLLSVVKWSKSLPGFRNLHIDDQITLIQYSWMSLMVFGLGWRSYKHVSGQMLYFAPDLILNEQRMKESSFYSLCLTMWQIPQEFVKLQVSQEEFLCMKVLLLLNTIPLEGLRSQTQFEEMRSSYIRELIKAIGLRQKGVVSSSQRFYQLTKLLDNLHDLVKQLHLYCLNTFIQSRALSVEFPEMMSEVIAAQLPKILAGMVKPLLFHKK
# How it was run: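 Antagonist mode: compounds tested against 1 nM (final) promegestone stimulation in HEK293T cells expressing PR-UAS-bla reporter, 16 hr at 37C, 5% CO2; beta-lactamase activity detected via B/G FRET substrate after 2 hr at room temperature.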
# [3] = qHTS assay to identify small molecule agonists of the progesterone receptor (PR) signaling pathway - cell viability counter screen (AID 1346799; calls by dose curve; also: nearly all actives have a fitted effect of over 45% in size)
# How it was run: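 Cells (PR-UAS-bla HEK293T) are plated at 3,000/well in 2% charcoal-stripped FBS medium, rested 6 hr, dosed and incubated 16 hr at 37C. CellTiter-Glo is then added and luminescence measured after 30 min at room temperature.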
# [4] = qHTS assay to identify small molecule agonists of the TGF-beta/Smad signaling pathway (AID 1346859; active = well fitted activation curve with a large enough effect in the signal ratio in the repeat runs, not every such curve was filed as active; inconclusive = weak or mixed curves; the % refers to the signal ratio); details: SBE-bla HEK293T, TGF-beta/Smad beta-lactamase reporter, 5 h; activation: at 76.8 µM (top of the series)
# How it was run: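 Reporter line: HEK 293T with stably integrated SBE-controlled beta-lactamase. Compound exposure lasts 5 hr at 37 C and 5% CO2; substrate loading follows for 2 hr at room temperature, with emission read at 460 and 530 nm.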
# [5] = target: Thyrotropin-releasing hormone receptor (Homo sapiens) (UniProt P34981); experiment: qHTS assay to identify small molecule antagonists of the thyrotropin-releasing hormone receptor (TRHR) signaling pathway (AID 1346877; active = well fitted inhibition curve with a large enough effect in the repeat runs, not every such curve was filed as active; inconclusive = weak or mixed curves)
# Chain of UniProt P34981 (P34981 whole entry, looked up): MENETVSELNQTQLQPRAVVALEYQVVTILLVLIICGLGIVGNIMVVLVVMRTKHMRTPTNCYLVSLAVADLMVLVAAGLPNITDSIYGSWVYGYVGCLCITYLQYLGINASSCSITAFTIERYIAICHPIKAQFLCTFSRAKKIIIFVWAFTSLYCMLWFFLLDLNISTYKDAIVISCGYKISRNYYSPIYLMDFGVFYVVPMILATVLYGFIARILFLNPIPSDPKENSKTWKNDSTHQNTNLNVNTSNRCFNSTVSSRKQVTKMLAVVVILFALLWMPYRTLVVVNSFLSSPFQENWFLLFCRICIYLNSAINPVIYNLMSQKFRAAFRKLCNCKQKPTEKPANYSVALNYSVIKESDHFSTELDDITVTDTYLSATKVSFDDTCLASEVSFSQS
# How it was run: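 In this cell-based calcium flux format, HEK293 cells expressing TRHR received test compound for 5 min before the agonist TRH (1 nM final). Dye loading lasted 2 h at 37 °C.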
# Potency is read from the fitted curve at half-maximal effect; tags tell the direction and shape of the fitted curve or compound fluorescence and quenching.
smiles,measurement,setting,value
CC(=O)OCC(CCn1cnc2cnc(N)nc21)COC(C)=O,Potency,[1],"inconclusive: 33.5 µM [rising, partial curve]"
COc1ccc2nc(NC(=O)Nc3ccccc3)sc2c1,"activity change, negative = inhibition",[2],inconclusive: -11.7% [at 42.5 µM]
same,Potency,[3],inactive
Nc1c(I)cc(I)c(C(=O)N(CCC(=O)O)c2ccccc2)c1I,Potency,[1],inactive
CC1=C(C)S(=O)(=O)CCS1(=O)=O,Potency,[1],"inconclusive: 60 µM [cytotoxic, partial curve, poor fit] and inconclusive: 38.6 µM [cytotoxic, partial curve, poor fit]"
same,Potency,[3],"inactive and inconclusive: 43.3 µM [cytotoxic, partial curve, poor fit]"
O=C(Oc1ccccc1)c1ccccc1,Potency,[2],inactive
same,Potency,[4],"inconclusive: 55 µM [rising, partial curve]"
CC(O)(P(=O)(O)O)P(=O)(O)O,Potency,[1],"inconclusive: 3.35 µM [cytotoxic, partial curve, poor fit]"
CC(COc1ccccc1)NC(C)C(O)c1ccc(O)cc1 (configuration not stated),Potency,[1],"inconclusive: 2.98 µM [cytotoxic, single point]"
CCC(C)C1CCCCC1=O (configuration not stated),Potency,[1],inactive
Cc1nnc(C(=O)NC(C)(C)c2nc(C(=O)NCc3ccc(F)cc3)c(O)c(=O)n2C)o1,"activity change, negative = inhibition",[2],inconclusive: 12% [at 42.5 µM]
same,Potency,[4],"inconclusive: 10.7 µM [rising, partial curve, poor fit]"
CN1CCN(C2=Nc3ccccc3Sc3ccc(Cl)cc32)CC1,Potency,[2],inconclusive: 29.8 µM
same,Potency,[4],"inconclusive: 19 µM [rising, partial curve]"
C[Si]1(C)N[Si](C)(C)N[Si](C)(C)N1,Potency,[2],inactive
same,Potency,[3],"inconclusive: 13.7 µM [cytotoxic, full curve, poor fit]"
CCN1CN(CC)CN(CC)C1,Potency,[1],"inconclusive: 66.1 µM [rising, single point]"
same,Potency,[3],inactive
CCCCCC(=O)O,Potency,[1],"inconclusive: 68.6 µM [rising, single point]"
CCNS(=O)(=O)c1ccc(C)cc1,Potency,[2],"inconclusive: 31.5 µM [falling, partial curve]"
same,Potency,[3],inactive
CC(C)(Sc1cc(C(C)(C)C)c(O)c(C(C)(C)C)c1)Sc1cc(C(C)(C)C)c(O)c(C(C)(C)C)c1,Potency,[2],inactive
same,Potency,[3],"inconclusive: 0.298 µM [cytotoxic, single point]"
same,Potency,[5],inactive
c1cc[nH]c1,Potency,[1],inactive
O=C(CCNNC(=O)c1ccncc1)NCc1ccccc1,Potency,[1],inactive
CC(=O)OC[C@H]1O[C@@](COC(C)=O)(O[C@H]2O[C@H](COC(C)=O)[C@@H](OC(C)=O)[C@H](OC(C)=O)[C@H]2OC(C)=O)[C@@H](OC(C)=O)[C@@H]1OC(C)=O,Potency,[2],inactive
same,Potency,[3],"inconclusive: 5.48 µM [rising, partial curve, poor fit]"
same,Potency,[5],"inconclusive: 0.034 µM [inhibitor, full curve]"
COC(=O)c1ccc(NC(C)=O)cc1OC,Potency,[1],inactive
Cc1ccc(Cl)cc1,Potency,[1],inactive
